From the supplement of paper PMC10126150
Values marked as one replicate rest on one cluster of the flow cell; about a third of the high ones do not repeat.

System: ATP
Experiment: switch fluorescence ratio, 500 uM ATP over buffer (Cy3 cluster intensity, sum of 5 cycles each) (fold (ratio)); higher = stronger signal-on switching upon ATP binding; sequences stand for … in TCGTCGGCAGCGTCAGATGTGTATAAGAGACAGTTTTTTTTTTTTTTTTTTTTTTTTT…TC
Conditions: aptamer strand: ATP DNA aptamer (quencher-CACCTGGGGGAGTATTGCGGAGGAAGG + anchor), 100 nM annealed; ATP concentration: 500 uM; one replicate
Method in brief: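 Cy3-labelled switching-strand clusters on a modified Illumina MiSeq flow-cell were annealed to 100 nM quencher-labelled ATP aptamer, imaged in selection buffer, then imaged after 15 min with 500 uM ATP at 22 °C. Five buffer/ATP cycles ran, with NaOH stripping and re-annealing between them. The fluorescence ratio is summed target-cycle over summed buffer-cycle Cy3 intensity per cluster, averaged per switch-domain sequence. Clusters outside 100-1000 RFU were excluded.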
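Also: ATP exposure 15 min at 22 °C before imaging.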

Sequence	switch fluorescence ratio
TAATACATAG	1.02
TAAGCCAAGT	1.05
GGCTAACTTC	0.992
CCCATCGAG	0.955
TGACGCAGGG	1.3
TTAGTTTG	1.01
CAGCCATGAC	1.12
TTTGTGTTAT	0.964
TTCGGTCCG	1.01
CCTTGGGATA	1.01
GCACGGTCGC	1.02
GCAGTCGATG	1.04
GTTTGTACA	1.03
CTTTAGTCGG	0.991
GGTGGAAGT	1.01
GATTATGAGA	1.03
TGCCAATATT	1.06
AAGTATGTGT	1.03
GCTCAACGCA	1.06
TATCATAGAG	1.01
ATGGCAAGAG	1.21
GGAGACGCC	1
TATTTCACAG	1

Sequence	switch fluorescence ratio
ACAAGGGGTA	1.02
TAATATGAAA	0.987
CTTGGAAAGT	0.986
TTATCCGCAC	3.94
TACCGTGTG	1.02
GACCGAGGTA	1.04
GGGTAGTATG	1
GTCATTTTGT	0.985
ACAGCCTCTA	0.987
TAATCATCTG	0.999
GACGAGTCTG	0.989
CCTCCTTCTG	1.12
GCTCTGGATG	1.12
GCACGGTTCG	0.975
TTTGGGAACG	0.98
GTCGGCATTG	0.951
GTCTGCTCGC	1.01
CGCGCCCTGA	1.04
GCCGGTAGTT	0.995
AGACGGACTG	1.03
CATCAAGCCT	1.15
GACGGCTTAT	0.982
GCCTACTCGA	1.09

Sequence	switch fluorescence ratio
ATGACGTCAT	0.968
CAATGAGTGG	0.994
TGGGAAATGC	1.08
ATGCGATTCC	1.07
TATTGTTTGG	0.983
TGCCTTAATT	1.01
TCGCGCGCAA	3.4
GGGTGTTG	0.964
CTGCGGGGCT	1.27
CGTTAAGAGA	1.08
TCCTATTGGT	1.01
CAAGGTATTT	0.963
AATGATCAAC	1.01
GTGTCCGGTT	1.05
ACGGTCTGCA	1.05
GAGCGTCAGG	1.02
ATTGGATGAC	1.01
GGCATAGAGA	1.06
TGGTTTACGT	0.95
TGCACACTTA	1.03
TGAGAAATTG	0.941
TTACAGGCTG	1.03
TATCTTGTTC	1.04

Sequence	switch fluorescence ratio
GGTCCGGTGT	1.06
AGTGACCTTC	1.41
TATCCGAGCC	1.35
AAATAAGTCG	0.986
CAACCACACG	1.39
CGGCACCTCG	0.99
CTGTGTATAC	1.24
GTGGCTGGCA	0.985
ATTTCTCCTT	1.04
ACGGTCTCGA	0.974
TGGTCTTCAA	0.996
GATGTTAAAA	0.958
CCGGGACCGT	1
AGATAGCCA	0.995
ACCGGTTACT	1.08
GGGAGAGTGT	0.994
TTTGCACGGC	1
GGGACTTCCC	1.12
GAACCAAACT	1.11
TTGACTCGTA	0.992
GAAATATAAG	1.01
GAACGAGTCG	1.04
AGAGAGAAAC	1.02

Sequence	switch fluorescence ratio
GGGGAGGAGA	1.02
ACGACTCCTG	1.01
GAGATGTTAA	0.962
CGTGTGTGT	0.998
TTGCGAGTA	0.972
CTCGGTAATT	1.34
AGCTGCGTGG	1.02
TACTCTACTA	1.24
AAGCACAAAC	1.38
TCGCCTCCTT	1.26
AAGACGCGGT	1.02
GCCGCACCCG	1.45
TACGGCTGAT	0.985
TATCCTGACT	1.29
CTCGGGGGTG	0.964
CGTTCATGTC	1.1
CATTTTCCCA	1.02
AAGGAGCGCA	1.04
GGGATGCGCC	1.01
GCGGGCTTTC	1.02
TCTGCTAGTG	1
CATTCCAGAC	1.6
CAGTTACTTT	1.02

Sequence	switch fluorescence ratio
GGAGCGGCCT	1.03
TCAGTGTACT	1.1
ACAAAGGCAC	1.03
TGAGTTCGAT	0.98
TAATCCTTGT	0.984
TTAAACCAGC	1.01
TAAGACTAGA	1.01
AGATGCTACT	0.985
ACGCTCCAAC	1.47
CTAAAGTAGA	1
AGAGTTTCCT	1.01
CAGCGTAGTA	1.01
AGATTAGG	0.953
AAACTCAGTG	1.01
CTGATTTAA	1.01
CATACGTAGG	1.07
TCATCGTGTG	1.01
GTTCAGAACC	0.962
ATCGCTGCTA	1.01
ACTAGTAATG	1
TGTCGGTTGG	1
GAAGTCACGG	1.1
GCCCGAAGG	1.01

Sequence	switch fluorescence ratio
TCGTTTATTC	0.994
GACAACTCTG	1
GGCACCCGGG	0.977
CGGGGTCGAA	1
GGTGAATAGC	1.02
TATGCCCACT	0.984
TTTACGTCAC	1.86
CCTAATATGC	1.32
CGTGCTTTCG	0.958
TGACAGGTT	1.01
ACGGTGCTGT	0.998
ATGTCAAAAA	0.978
CAGGGGATTT	0.993
ATTTTCTCAG	0.968
GAACAATTGG	1.03
TTACTGGCTT	0.992
CCACGAGAAG	1.06
GCCGACTTTC	1.02
TTATGCCGTC	0.953
